Test results taken from EP1226824A1, “Use of thalidomide for the treatment of hepatocellular carcinoma” (TTY Biopharm Company Limited, priority 2001, dated 2002).

What was measured:
[1] = system: tumor necrotic factor-alpha (TNF-I); conditions: prior art statement; cited from earlier work
[2] = in water, methanol, ethanol or acetone; cited from earlier work
[3] = system: basic fibroblast growth factor-induced angiogenesis; conditions: prior art statement; cited from earlier work
angiogenesis = conditions: prior art statement; cited from earlier work
[4] = system: metastatic and locally advanced hepatocellular carcinoma; assay: thalidomide treatment of two patients with metastatic and locally advanced hepatocellular carcinoma (Example 3); format: in vivo; conditions: thalidomide 100 mg twice daily, tested every 2-4 weeks
Experimental: Thalidomide was administered 100 mg twice daily. They were subjected to serum alpha-fetoprotein test every 2-4 weeks and computed tomography or magnetic resonance image examination every 4-8 weeks.

For `O=C1CCC(N2C(=O)c3ccccc3C2=O)C(=O)N1` (stereo not shown) [thalidomide, 2-(2,6-dioxo-3-piperidinyl)-1H-isoindolle-1,3(2H)-dione], the “right upper quadrant tenderness” value (hepatocellular carcinoma; after two weeks of thalidomide 100 mg twice daily) is listed as “significantly relieved”, the “side effects, such as arrest of bone marrow or hepatotoxicity” value (hepatocellular carcinoma; human, in vivo) is listed as “without significant side effects” and the “inhibition of tumor necrotic factor-alpha (TNF-I)” value [1] is listed as “effectively inhibit”. For the same molecule, the solubility [2] was “sparingly soluble”, the “inhibition of basic fibroblast growth factor-induced angiogenesis” value [3] was “effectively inhibit” and the inhibition of angiogenesis (angiogenesis) was “effectively inhibit angiogenesis”. The “serum alpha-fetoprotein level (Figures 6 and 7)” value [4] was “significant reduced”.
